# Paper PMC10668032
# The other results are listed elsewhere or left out. At the low end of the ranking the order means little.
# Molecular target: SIX1 homeodomain (reference allele) (UniProt Q15475)
# Assay: universal protein binding microarray
# Conditions: Universal all-10-mer PBM (8x60K, AMADID 030236), 300 nM GST-tagged protein, Alexa Fluor 488 anti-GST; buffer, salt, pH and temperature not stated; high values mean tight binding; most listed sequences are background and not binding sites; double strand, one strand shown
row,Sequence,binding signal [E-score]
1,TCATTCGA,0.0396
2,ACCTGCCA,-0.0771
3,ACCCGCAT,0.144
4,GGCTAAAC,-0.14
5,TATTAGAA,0.0911
6,AGGGTGCG,-0.103
7,AAAACAGA,-0.0704
8,AAGGGGCA,-0.183
9,TGAGTGCA,-0.0271
10,CGGCAAAA,-0.179
11,ACCAAACT,-0.15
12,CAACCGGA,0.0477
13,ACCGTGGA,0.0731
14,ACAGAAGC,-0.169
15,TCAAGAAA,-0.226
16,GTCCGGTA,0.0225
17,AGACGAGG,-0.026
18,GGAATCCC,0.232
19,CGTCCAGA,-0.0313
20,ATAACGAG,-0.0645
21,CCTGCGAA,-0.31
22,CCCGGCTA,0.128
23,ATTGCAGG,0.0225
24,ACTCAGCT,-0.152
25,CTCCCCAA,0.118

row,Sequence,binding signal [E-score]
1,CTCTAATC,0.052
2,GAAGGAAA,-0.221
3,CAGCTTCG,-0.0658
4,TCGGCCGA,-0.0272
5,AAGTCTGC,-0.264
6,GCAAAGGC,-0.138
7,TACTGTAA,0.121
8,TCTACCAA,-0.0219
9,CGTTACCA,0.132
10,GTCAGGCA,-0.159
11,CTCAATGA,-0.0264
12,AGGCGTAA,-0.149
13,GTAGACTA,-0.0676
14,CCCAAACA,0.0132
15,CAAATAAA,-0.155
16,CTGTCGCA,-0.158
17,GTTTCTCA,-0.184
18,ATCCTCCA,0.297
19,AGCATCCT,-0.0896
20,CGGCGGAC,0.0235
21,CGTCCACG,-0.106
22,GATCGGCA,0.211
23,GAACGAAC,-0.0749
24,ATAGTCCG,-0.0202
25,AAGGACAG,-0.168

row,Sequence,binding signal [E-score]
1,AACAGACG,-0.124
2,ACATGCGA,0.102
3,CTACTGAC,-0.0954
4,AACCGACA,0.0815
5,ACCCCCAT,0.0992
6,CAAGCAGG,-0.0694
7,ACGATCTA,0.164
8,AACGTCGA,-0.168
9,CGAAGAAA,-0.199
10,CATCGAAG,0.178
11,ATAACTCG,-0.0821
12,CAGTTTGC,-0.16
13,CAAGGCGG,-0.119
14,CGGCCTGC,-0.16
15,ATCAGCGG,0.171
16,AAAGGCCT,-0.37
17,CTAGTGGC,-0.185
18,GACTGCGC,-0.078
19,CATACGGA,0.178
20,CCATCGCC,0.0549
21,CACTTGAC,-0.0517
22,GATCTAAC,0.149
23,AAAATTAG,-0.216
24,CGGTGGAG,-0.0648
25,GGGTCGTA,0.141

row,Sequence,binding signal [E-score]
1,CGCTTGAG,-0.169
2,CTACCACA,-0.143
3,CGTTGGAA,-0.0203
4,CAACTTCC,-0.155
5,GCCTAAAA,-0.262
6,ACCACTAC,-0.0964
7,ATGTAAAG,-0.158
8,ACTGCCAC,-0.182
9,AAATTGTA,-0.207
10,GGCCGGTA,0.0377
11,CCCGCGAG,0.206
12,AATATCCC,0.378
13,ACATAAAT,-0.12
14,ACCTGCCG,-0.101
15,CATAGACG,-0.0184
16,CAGTCCAC,-0.228
17,GGTTATCA,0.21
18,AACATCTC,0.0198
19,ATGTGATA,0.392
20,AAAAGATG,-0.201
21,AACTTTGC,-0.267
22,AGTGTGTG,0.123
23,ATTGTCAG,-0.0991
24,ACATTGTG,-0.121
25,ACGTCCAC,-0.311

row,Sequence,binding signal [E-score]
1,CGTGTACA,0.114
2,CCAGGGCG,-0.0407
3,GTCAAAAA,-0.085
4,AGCCGGAC,0.0596
5,AATAGGGC,-0.0973
6,CGACCCAA,-0.0483
7,CCATAATC,0.119
8,ACTCTGTG,0.0939
9,AACTCCAC,-0.119
10,AGTGCTGC,-0.279
11,AGAGGTAG,0.0353
12,AAGTCTTA,-0.127
13,CACTGACC,-0.16
14,AGCCTAAT,-0.122
15,CCTAGCTA,0.15
16,AACGATAC,0.435
17,ATACTTGG,0.199
18,AACTGGAC,-0.146
19,AACAACCC,-0.0853
20,CCGAGGAC,0.055
21,GCTTCCCC,-0.048
22,CTACCTAG,0.0181
23,GACAATGA,-0.173
24,ATCGAACA,0.167
25,TATGATCA,0.25

row,Sequence,binding signal [E-score]
1,GCACCAGA,-0.0402
2,CCACCCGG,0.0085
3,AATACGAT,0.338
4,CTCGACGC,-0.0621
5,CGAGTGGA,0.135
6,ACACCGCT,0.224
7,TCCTCAAA,-0.178
8,AGGTGACC,-0.0897
9,ATCTTGAG,0.0468
10,CTGTCTTA,-0.0279
11,AAATGGGG,-0.166
12,CAAGTAAG,-0.101
13,GAGAGACC,-0.0608
14,CCTAACGA,0.0278
15,GTCCTCGA,-0.0465
16,CTGTGATA,0.39
17,CCTACAAG,-0.112
18,AGACTAGA,-0.0667
19,ATCTTTAG,0.0382
20,AACTCCAT,-0.213
21,GTCATGAA,0.124
22,GGGCATAC,-0.0587
23,CAGCTGCC,-0.12
24,CTGGACTA,-0.181
25,CCTACCAC,-0.241

row,Sequence,binding signal [E-score]
1,GACACCGA,0.383
2,AAAGTAAG,-0.254
3,GAAGCCAA,-0.0849
4,AGACGATC,0.285
5,CGGGTAAG,-0.0658
6,GAAAGAGA,-0.027
7,CAGGAGAA,0.0335
8,ATAAATAG,0.0909
9,GCGCCTAC,-0.194
10,ATACAAAC,0.156
11,CAGCTCTC,-0.168
12,TATGACAA,0.0785
13,TTGACAAA,-0.253
14,ACCTGGAT,0.206
15,AATAGCAG,0.00467
16,CAATGAGA,0.0863
17,ACTGAGGA,0.0721
18,ACTTGCTA,-0.0958
19,GCAAGGAA,0.0556
20,CCTGTCGA,-0.0707
21,CCCCATCG,0.152
22,TAGCATCA,0.0528
